From PubChem BioAssay (NCATS)
Several values for one entry are separate records, joined by “and”; a condition that tells them apart may be missing. Equal values may be shown once. The inconclusive results got no clear call from the source; some entries with a clear call stand among them for comparison. For part of these data: Potencies of inconclusive entries are doubtful fits and often do not repeat. Activity calls are given as the source filed them. Unless noted, calls follow the shape of the dose curve; as a rule, active = well fitted curve in the direction sought with a large enough effect; inconclusive = small, poorly fitted or top-dose-only effect, or another doubt; inactive = no such curve, though single readings can be large; an effect the other way counts as inactive or inconclusive.

Experiments:
[1] = AP1 Signaling Pathway (AID 357; active = well fitted curve in either direction with a large enough effect, not every such curve was filed as active; inconclusive = small, poorly fitted or top-dose-only effect, or another doubt; also: top concentration of the series differs between compounds; % is scaled to controls: 0 for no effect and ±100 for the full control effect); conditions: ME-180 AP-1-bla reporter, EGF-induced, beta-lactamase ratio, 5 h; at 17.2 µM (top of the series) unless noted
Outline: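 ME-180 cells with beta-lactamase reporter under AP-1 response element, stimulated with EC50 EGF; compounds tested in titration series, 5 h at 37 °C. CCF4 substrate added 2.5 h at room temperature; 460/530 nm emission ratio gave %activity and AC50.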

[2] = NFAT Signaling Pathway (AID 444; active = well fitted curve in either direction with a large enough effect, not every such curve was filed as active; inconclusive = small, poorly fitted or top-dose-only effect, or another doubt;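 also: carbachol stimulus at about its EC50 of 1 µM final; % is scaled to controls: 0 for no effect and ±100 for the full control effect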); conditions: Jurkat NFAT-bla M1, carbachol, beta-lactamase ratio, 5 h; at 7.69 µM (top of the series) unless noted
Outline: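 Read-out: CCF4 FRET ratio (460 nm/530 nm) after 1 h RT dye loading, used for %activity and AC50 from titration series. Cells: Jurkat NFAT-β-lactamase/M1 line, treated with compound plus 1 uM carbachol for 5 h, 37 °C.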

[3] = target: 3',5'-cyclic-AMP phosphodiesterase 4B (Homo sapiens) (UniProt Q07343); assay: qHTS Assay for Inhibitors of PDE-IV (AID 607; active = well fitted activation curve with a large enough effect in the main read-out, with a control signal flat, not every such curve was filed as active; inconclusive = small, poorly fitted or top-dose-only effect, or effect the other way, or a change in a side signal; also: potency is read from the fitted curve at half-maximal effect); conditions: HEK293 ACTOne CNG channel cells, membrane potential fluorescence; activation (PDE inhibition): at 22.9 µM (top of the series)
Outline: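 Live HEK293 cells with a modified cyclic nucleotide-gated (CNG) channel report intracellular cAMP via membrane-potential dye fluorescence (ex 535/em 590 nm). Endogenous PDE-IV was targeted. Compounds were tested at up to 22.9 uM final; RO 20-1724 100 uM served as control.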

[4] = qHTS Assay for Identification of Small Molecule Antagonists for NFkB Signaling Pathway (AID 895; active = well fitted inhibition curve with a large enough effect in the signal ratio, with a control signal flat, not every such curve was filed as active; inconclusive = small, poorly fitted or top-dose-only effect, or effect the other way, or a change in a side signal; the % refers to the signal ratio; also: potency is read from the fitted curve at half-maximal effect); conditions: NFkB beta-lactamase reporter cells, FRET ratio 460/530; activity change, negative = inhibition: at 38.3 µM (top of the series) unless noted
Outline: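 Beta-lactamase reporter read-out (460 and 530 nm emission ratio, 405 nm excitation, 2 hrs substrate loading RT) after 5 hr stimulation with 10 pM TNF alpha in compound-treated NFkB-bla ME-180 cells in low-serum medium.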

[5] = qHTS Assay for Identification of Small Molecule Agonists for Thrombopoietin (TPO) Signaling Pathway (AID 917); also: potency is read from the fitted curve at half-maximal effect
Outline: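 IL-3-dependent murine pro-B Ba/F3 cells, stably transfected with human TPO receptor and GpIIb-promoter luciferase, are incubated 24 hrs at 37 C with test compound and 26 pM TPO; luciferase signal is read after 10 min at room temperature.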

[6] = qHTS Assay for Lipid Storage Modulators (AID 1519; calls by dose curve; also: % is scaled to controls: 0 for no effect and ±100 for the full control effect); conditions: Drosophila S3 cells, BODIPY lipid droplet/cell ratio, laser cytometry, cells loaded with oleic acid
Outline: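 Cells seeded at 5,000 per well were treated with compounds over a concentration series and loaded with oleic acid (400 uM, as added). Lipid droplet fluorescence (488 nm excitation, 500-530 nm channel) was read by laser-scanning cytometry and normalized to 20 uM Triacsin C.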

[7] = target: Endonuclease 4 (Escherichia coli (strain K12)) (UniProt P0A6C1); assay: Counterscreen for APE1 Inhibitors: qHTS Validation Assay for Inhibitors of Endonuclease IV (AID 1708); also: potency is read from the fitted curve at half-maximal effect
Outline: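 qHTS concentration-response format; LOPAC1280 tested under APE1-screen conditions. 2 nM enzyme, 15 min compound preincubation at RT, then 50 nM TAMRA/BHQ-2 abasic substrate; kinetic fluorescence read, three reads at 60 s intervals.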

[8] = qHTS for differential inhibitors of proliferation of Plasmodium falciparum line 7G8 (AID 1815);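 also: potency is read from the fitted curve at half-maximal effect; parasite growth measured after three days of incubation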
[9] = qHTS for differential inhibitors of proliferation of Plasmodium falciparum line GB4 (AID 1816); conditions: Potency: Plasmodium falciparum GB4 proliferation inhibition;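 also: potency is read from the fitted curve at half-maximal effect; parasite growth measured after 72 h incubation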
[10] = qHTS for differential inhibitors of proliferation of Plasmodium falciparum line D10 (AID 1877);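 also: potency is read from the fitted curve at half-maximal effect; parasites grown with compound for 72 h before DNA staining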
[11] = qHTS for differential inhibitors of proliferation of Plasmodium falciparum line HB3 (AID 1886); conditions: Potency: Plasmodium falciparum HB3 proliferation inhibition;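 also: potency is read from the fitted curve at half-maximal effect; parasites grown with compound for 72 h before SYBR Green readout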
[12] = Validation screen for small molecules that induce DNA re-replication in MCF 10A normal breast cells (AID 463097); also: 0% is about no effect; nearly all actives have a fitted effect of over 60% in size
Outline: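 Following 48 hr compound incubation (37 C, 5% CO2), MCF 10A cells receive Hoechst for 40 min at 37 C. Nuclei are then scanned (excitation 405 nm, emission 500-530 nm) for total fluorescence intensity.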

[13] = Validation screen for small molecules that induce DNA re-replication in SW480 colon adenocarcinoma cells (AID 504364); also: 0% is about no effect
Outline: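 250 cells/well; compound pinned in; 48 hr, 37 C, 5% CO2; Hoechst added, 40 min; nuclear fluorescence imaged, 405 ex / 500-530 em; re-replication scored as increase in high-intensity nuclei.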

[14] = target: Ubiquitin carboxyl-terminal hydrolase 1 (Homo sapiens) (UniProt O94782); assay: Inhibitors of USP1/UAF1: Pilot qHTS (AID 504865);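 also: rhodamine fluorescence freed from ubiquitin-rhodamine substrate followed over time; potency is read from the fitted curve at half-maximal effect; nearly all actives have a fitted effect of over 35% in size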
Outline: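 Enzyme-free wells gave the negative control, while test wells held 1nM USP1/UAF1 preincubated with compound for 15 min at room temperature. Ub-Rho at 150nM final started the reaction, and fluorescence at 480/540 nm was recorded kinetically.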

[15] = qHTS Assay for Identifying Gametocytocidal Compounds (AID 743244);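 also: % is scaled to controls: 0 for no effect and ±100 for the full control effect; actives lower the fluorescent signal which means gametocytes are killed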; conditions: P. falciparum 3D7 stage III-V gametocytes, alamarBlue, 72 h; max response: stronger effect = lower value
Outline: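 P. falciparum 3D7 stage III–V gametocytes (20,000 cells/well) were exposed to compounds for 72 h at 37 °C, 5% CO2. AlamarBlue was then added for 24 h; decreased resorufin fluorescence (Ex 525/Em 598 nm) indicated loss of viability.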

[16] = target: Tyrosine-protein phosphatase non-receptor type substrate 1 (Homo sapiens) + Leukocyte surface antigen CD47 (Homo sapiens) (UniProt P78324+Q08722); assay: CD47-SIRPalpha protein protein interaction - HTRF assay qHTS validation (AID 1347058; active = well fitted curve in the direction sought with a large enough effect in the signal ratio, not every such curve was filed as active; inconclusive = small, poorly fitted or top-dose-only effect, or effect the other way, or a change in a side signal; inactive = no such curve, though single readings can be large or run the other way; the % refers to the signal ratio;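 also: recombinant soluble extracellular CD47 with His tag and biotinylated SIRPalpha domains; 0% is about no effect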)
Outline: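 TR-FRET read (Ch1/Ch2 ratio) of soluble extracellular CD47 and Avi-biotinylated SIRPalpha domains in PBS pH 7.4 with 0.05% IGEPAL; 7-point compound titration. Sequential 30 min room-temperature steps; non-biotinylated SIRPalpha as control inhibitor.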

[17] = tested on: Zika virus NS2B-NS3 protease (unlinked); assay: Optimization of GU AMC qHTS for Zika virus inhibitors: Unlinked NS2B-NS3 protease assay (AID 1347151);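 also: 0% = no-inhibitor control and -100% = no-enzyme control; nearly all actives have a fitted effect of over 80% in size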
Outline: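 In this qHTS, compounds acted on 25 nM unlinked Zika NS2B–NS3 in pH 8.0 Tris/Tween buffer. Cleavage of an AMC peptide ran 15 min at room temperature, to about 20% conversion.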

[18] = target: Papain (Carica papaya) (UniProt P00784); assay: Primary qHTS assay for inhibitors of the protease papain (AID 1645873)
[19] = qHTS for Inhibitors of the Functional Ribonucleoprotein Complex (vRNP) of Lassa (LASV) Arenavirus: LASV Primary Screen - GLuc reporter signal (AID 1347082; calls by dose curve; tested in HEK293 reporter line; also: % is scaled to controls: 0 for no effect and ±100 for the full control effect; nearly all actives have a fitted effect of over 60% in size); conditions: LASV minigenome vRNP, Gaussia luciferase reporter; activity change, negative = inhibition: at 57.5 µM (top of the series) unless noted
Tags tell the direction and shape of the fitted curve or compound fluorescence and quenching.

Sequence of UniProt Q07343 (Q07343 whole entry, looked up): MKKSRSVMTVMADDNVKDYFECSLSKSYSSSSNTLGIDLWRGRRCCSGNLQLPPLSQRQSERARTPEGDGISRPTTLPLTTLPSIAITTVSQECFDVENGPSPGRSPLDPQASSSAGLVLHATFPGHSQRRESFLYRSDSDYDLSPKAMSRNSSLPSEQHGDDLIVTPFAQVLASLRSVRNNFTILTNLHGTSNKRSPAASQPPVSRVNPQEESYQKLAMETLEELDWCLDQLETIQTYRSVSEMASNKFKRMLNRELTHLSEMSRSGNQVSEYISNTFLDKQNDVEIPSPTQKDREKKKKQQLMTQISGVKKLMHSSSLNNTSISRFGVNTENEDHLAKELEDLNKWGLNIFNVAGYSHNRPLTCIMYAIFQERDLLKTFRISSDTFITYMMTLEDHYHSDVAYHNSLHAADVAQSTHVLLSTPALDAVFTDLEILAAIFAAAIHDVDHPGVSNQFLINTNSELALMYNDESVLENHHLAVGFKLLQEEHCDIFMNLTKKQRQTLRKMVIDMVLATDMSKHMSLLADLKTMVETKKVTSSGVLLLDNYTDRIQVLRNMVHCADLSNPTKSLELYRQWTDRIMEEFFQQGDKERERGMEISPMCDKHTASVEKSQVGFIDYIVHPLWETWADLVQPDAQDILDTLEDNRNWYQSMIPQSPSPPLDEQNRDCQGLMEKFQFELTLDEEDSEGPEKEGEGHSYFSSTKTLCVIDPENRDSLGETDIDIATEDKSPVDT
Sequence of UniProt O94782 (O94782 whole entry, looked up): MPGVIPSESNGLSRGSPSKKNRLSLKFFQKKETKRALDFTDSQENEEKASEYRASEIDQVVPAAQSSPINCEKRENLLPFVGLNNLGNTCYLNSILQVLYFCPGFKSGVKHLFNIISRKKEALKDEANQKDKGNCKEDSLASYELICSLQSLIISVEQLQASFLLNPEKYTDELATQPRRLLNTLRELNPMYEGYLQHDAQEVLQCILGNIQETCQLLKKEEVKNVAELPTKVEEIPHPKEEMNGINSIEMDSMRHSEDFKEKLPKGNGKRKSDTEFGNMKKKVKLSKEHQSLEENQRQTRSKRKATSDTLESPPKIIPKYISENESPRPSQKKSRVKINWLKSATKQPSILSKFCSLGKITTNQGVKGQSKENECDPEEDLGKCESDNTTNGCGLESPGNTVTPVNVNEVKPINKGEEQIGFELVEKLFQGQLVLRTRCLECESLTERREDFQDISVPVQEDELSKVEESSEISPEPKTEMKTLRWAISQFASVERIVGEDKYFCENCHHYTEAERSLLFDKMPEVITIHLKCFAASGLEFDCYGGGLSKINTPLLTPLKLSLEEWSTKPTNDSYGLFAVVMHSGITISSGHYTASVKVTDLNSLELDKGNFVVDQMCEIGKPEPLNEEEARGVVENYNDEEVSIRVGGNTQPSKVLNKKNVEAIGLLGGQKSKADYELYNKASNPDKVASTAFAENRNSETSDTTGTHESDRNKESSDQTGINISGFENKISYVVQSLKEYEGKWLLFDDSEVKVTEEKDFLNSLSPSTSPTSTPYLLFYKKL
Sequence of UniProt P00784 (P00784 whole entry, looked up): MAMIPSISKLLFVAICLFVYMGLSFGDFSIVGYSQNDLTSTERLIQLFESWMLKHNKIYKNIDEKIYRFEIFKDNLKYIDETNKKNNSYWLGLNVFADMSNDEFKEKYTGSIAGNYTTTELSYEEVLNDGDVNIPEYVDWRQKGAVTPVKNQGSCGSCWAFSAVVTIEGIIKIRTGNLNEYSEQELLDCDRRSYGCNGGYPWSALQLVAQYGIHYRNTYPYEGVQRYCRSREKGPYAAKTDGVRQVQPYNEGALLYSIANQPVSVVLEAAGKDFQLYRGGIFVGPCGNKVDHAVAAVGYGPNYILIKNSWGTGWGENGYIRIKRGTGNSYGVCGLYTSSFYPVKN
Sequence of UniProt P78324 (P78324 whole entry, looked up, the tested form may be a part): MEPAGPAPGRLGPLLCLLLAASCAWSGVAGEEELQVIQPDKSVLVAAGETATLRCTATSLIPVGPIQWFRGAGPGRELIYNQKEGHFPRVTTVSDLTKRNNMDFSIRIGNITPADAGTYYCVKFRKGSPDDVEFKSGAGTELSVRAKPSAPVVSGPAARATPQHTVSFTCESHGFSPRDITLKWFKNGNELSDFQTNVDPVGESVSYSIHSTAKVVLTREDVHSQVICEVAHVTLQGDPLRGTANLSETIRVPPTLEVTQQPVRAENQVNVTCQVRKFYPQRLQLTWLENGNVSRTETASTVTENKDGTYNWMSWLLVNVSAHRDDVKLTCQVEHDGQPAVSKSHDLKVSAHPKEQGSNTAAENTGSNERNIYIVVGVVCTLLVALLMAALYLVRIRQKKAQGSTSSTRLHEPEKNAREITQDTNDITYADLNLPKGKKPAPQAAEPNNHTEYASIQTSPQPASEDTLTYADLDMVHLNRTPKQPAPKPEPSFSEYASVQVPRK
Sequence of UniProt P78324 (Q08722 whole entry, looked up, the tested form may be a part): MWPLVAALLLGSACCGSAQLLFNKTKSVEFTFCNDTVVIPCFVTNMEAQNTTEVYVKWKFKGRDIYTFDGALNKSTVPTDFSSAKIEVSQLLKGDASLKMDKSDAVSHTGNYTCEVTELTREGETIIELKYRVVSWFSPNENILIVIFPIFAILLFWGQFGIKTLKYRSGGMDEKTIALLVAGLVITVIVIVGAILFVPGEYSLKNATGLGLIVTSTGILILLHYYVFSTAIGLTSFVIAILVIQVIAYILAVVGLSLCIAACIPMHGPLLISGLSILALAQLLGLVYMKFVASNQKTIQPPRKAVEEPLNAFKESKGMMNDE

SMILES: C#CCOC(=O)C1=CCCN(C)C1
- activity change, negative = inhibition [1]: inactive: 16.6% [at 38 µM]
- activity change, negative = inhibition [2]: active: 44.2% [activator] [at 38 µM]
- Potency [3]: active: 398 nM and inconclusive: 6 µM [activator, partial curve, poor fit]
- Potency [4]: inconclusive: 22.4 µM [inhibitor, single point]
- Potency [5]: inconclusive: 1.26 µM [inhibitor, partial curve]
- activity change, negative = inhibition ([6]; activity change, negative = inhibition: at 57.5 µM (top of the series) unless noted): inconclusive: 0.792%
- activity change, negative = inhibition ([6]; at 57.5 µM (top of the series)): inactive: 6%
- Potency [7]: inconclusive: 6.31 µM [inhibitor, full curve, poor fit]
- Potency [8]: inconclusive: 11.2 µM [inhibitor, partial curve, poor fit]
- Potency [9]: inconclusive: 8.91 µM [inhibitor, partial curve, poor fit]
- Potency [10]: inconclusive: 14.1 µM [inhibitor, single point]
- Potency [11]: inconclusive: 8.91 µM [inhibitor, partial curve]
- Potency [12]: inactive
- Potency [13]: inactive
- Potency [14]: inconclusive: 56.2 µM [inhibitor, partial curve, poor fit]
- max response [15]: inactive: 10.6%
- Potency [16]: inactive
- Potency [17]: inactive
- Potency [18]: inconclusive: 35.5 µM [inhibitor, single point]

SMILES: O=C(O)CCCC[P+](c1ccccc1)(c1ccccc1)c1ccccc1
- Potency [19]: inactive

SMILES: C[C@]12CC[C@@H]3c4ccc(O)cc4CC[C@H]3[C@@H]1C[C@@H](O)[C@@H]2O
- Potency [19]: inactive
